# From PMC6212790
# This is one part of the list. At the low end of the ranking the order means little.
# Molecular target: T1, GST-Rok (full length) (UniProt O34857)
# T1 sequence: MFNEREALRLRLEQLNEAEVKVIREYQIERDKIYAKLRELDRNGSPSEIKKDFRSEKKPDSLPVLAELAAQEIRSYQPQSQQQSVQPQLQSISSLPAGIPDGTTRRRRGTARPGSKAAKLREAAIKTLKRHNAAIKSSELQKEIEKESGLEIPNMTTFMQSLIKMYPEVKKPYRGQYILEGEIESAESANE
# Test: protein binding microarray;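 note: rank score from −0.5 (least bound) to 0.5 (best bound)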
# Conditions: Rok is a gene silencer of Bacillus subtilis; high values mean tight binding; most listed sequences are background and not binding sites; double strand, one strand shown
row,Sequence,binding signal [E-score]
1,CTTCCCGC,-0.286
2,AGGATTTG,-0.093
3,CGTGGGGC,-0.361
4,GCGAAGAC,-0.171
5,ACGAGTTC,-0.00762
6,GGTGCGAA,-0.123
7,GCAAAGAC,-0.0851
8,GACCTATA,0.279
9,CCGCGGAA,0.0245
10,CATTGGCG,-0.252
11,ATCAGCCG,-0.321
12,CAAGGGAA,-0.16
13,GCTAGGCA,0.0262
14,GTTCCCAA,-0.0959
15,GTAAGTGA,0.0686
16,ACGGCGAG,-0.177
17,AAGTTCAC,0.0366
18,CAGTCGGG,-0.157
19,AAAGGTCT,-0.116
20,GCTGGCAC,-0.181
21,AGTAGTCA,0.233
22,ACATAAAA,0.0858
23,CACTGCAC,0.0921
24,CCCAAATA,-0.149
25,CTTCCGTC,-0.278

row,Sequence,binding signal [E-score]
1,GCGCTCCC,-0.413
2,AGCCCGGC,-0.253
3,CTCTCCGA,-0.125
4,CAAGGTAA,0.157
5,ACTCATGA,-0.0997
6,ATGCTGCA,0.0185
7,ACGAATCA,0.131
8,GGCGTAGA,-0.0468
9,ACGGCTCT,-0.0378
10,ATGGTCAA,0.103
11,CACAGCTG,-0.139
12,AATTGGAT,0.111
13,CCGCTGTA,-0.0416
14,GGACGACC,-0.28
15,GGTAGTAC,0.339
16,AAAAGGGA,-0.297
17,AAGGGCAA,-0.219
18,CCCAGCAA,-0.251
19,ATGTCCTA,-0.00119
20,AAACTTTA,0.0513
21,CTTATTAA,0.144
22,AGGAGAAC,-0.256
23,AAACCTTC,0.00352
24,ACAAGTTA,0.243
25,AAGATATT,0.319

row,Sequence,binding signal [E-score]
1,GGACGGAC,-0.328
2,GATGGGCC,-0.241
3,CTAATAAC,0.101
4,CCCTGCGA,-0.361
5,AATTGCAT,0.0907
6,TATCATCA,0.214
7,CAGTACTG,0.0294
8,ACCCTCAC,-0.366
9,AATACCGT,0.291
10,GTTCTATA,0.29
11,CGCTTCGA,0.0676
12,ACCTAAGT,0.0115
13,ACGGACTA,0.069
14,AGAAGCTC,-0.0308
15,CGTGCGGA,-0.0584
16,GCATGGAA,-0.193
17,GGCGCCAA,-0.306
18,AATGTTTA,0.177
19,AAATACCC,0.131
20,GAATGTCC,-0.146
21,ACTGTTCC,-0.0752
22,CTACATGC,0.308
23,GTCCCCCA,-0.206
24,CGAACAGA,0.178
25,AACGTACT,0.187

row,Sequence,binding signal [E-score]
1,AAGTTCTG,0.105
2,CTAGCACC,-0.0148
3,GTTCCCCA,-0.264
4,CCGTGGTA,0.0728
5,CGCATACG,-0.00965
6,GCCAGATA,-0.191
7,TAAAGATA,0.246
8,ACGGTTGA,0.0819
9,CCACGCAA,-0.0448
10,ATCCTAAC,0.0663
11,ATTCGGCA,-0.0204
12,AGACAGAA,0.0386
13,CTACCAAC,0.164
14,CACTACTC,0.00906
15,TACATCTA,0.382
16,TAAGCGAA,-0.0856
17,ATTTCGGG,-0.222
18,ACAAAATC,-0.0365
19,CAGACATC,-0.168
20,CAGTTTCG,0.0836
21,GACAGTTA,0.161
22,CAACAGCA,-0.115
23,ACTACGAG,0.145
24,CGTATACC,-0.0224
25,GGGAACAC,-0.26

row,Sequence,binding signal [E-score]
1,CATGTCCG,0.0148
2,ATTGCTAG,0.236
3,ATCCTTTC,-0.0311
4,AACATTAC,0.214
5,AAATTTGA,0.115
6,AGTGACAC,0.0501
7,CTCTATAC,0.033
8,ATGGCCTC,-0.248
9,ACGTCGAA,0.111
10,AACTTTCC,-0.0562
11,GAACGGAC,-0.365
12,TCGCCTCA,-0.0967
13,ACTAACTA,0.348
14,AGTATTTC,0.332
15,CTCCTAAC,-0.0628
16,AAATATTA,0.305
17,CCTACAGG,-0.24
18,GATCCGAC,-0.175
19,GAGGCGAC,-0.133
20,ACCTCACA,0.0258
21,GACGACGC,0.0038
22,CACCTGTA,0.101
23,CTGATAAC,0.0762
24,GCTCAAAC,-0.11
25,CCGTCGAG,-0.0127

row,Sequence,binding signal [E-score]
1,TAACCCTA,0.00689
2,AACTCCTC,-0.121
3,ATCCATCC,0.0458
4,AGCTCACG,-0.193
5,CTAACAAC,-0.119
6,CATATTTC,0.287
7,ACGGGTGA,-0.113
8,CAATAAGA,0.0955
9,CAAGCTTC,-0.192
10,CGTGTTCA,0.0479
11,AGGAACTG,-0.0117
12,AGTCGGTG,-0.0768
13,AGGTTAAA,0.0464
14,CTCATTGC,-0.218
15,AACTGACA,0.116
16,GGCATGGA,-0.224
17,GTAGGGGA,-0.238
18,CAAGAGAG,-0.00957
19,CGTTACTA,0.34
20,GCTTTGTA,0.135
21,AAGCCAAC,-0.0856
22,CATGACTA,0.253
23,ATCTTTGA,0.224
24,AAGCATCT,-0.0696
25,ACAAGAGA,0.000275

row,Sequence,binding signal [E-score]
1,ATGGGAGG,-0.252
2,CTAACCCC,-0.32
3,GCGAGACA,-0.175
4,AGAGAACT,0.126
5,TACCTGGA,0.082
6,ATCTAGGG,0.0815
7,CTCCTATA,0.171
8,AGTTCTTG,-0.017
9,ATGCGATC,-0.042
10,AGTGAAAC,-0.00421
11,GTATTTGA,0.0869
12,CCATTAAC,-0.108
13,ACCGGCTA,-0.0445
14,CGAAGCTA,0.0592
15,TATATATA,0.477
16,TGTTGTAA,0.142
17,TCAAGCGA,-0.318
18,CGTGGTCA,-0.0319
19,ACCCAGTC,-0.0752
20,ACCAATTC,0.207
21,TAACGCTA,0.126
22,ACCAACGG,-0.0314
23,AAGAGAAG,0.0393
24,CATCGAGC,0.0473
25,AGGCAGCC,-0.279

row,Sequence,binding signal [E-score]
1,ACAAGCCT,-0.083
2,CCCCACCC,-0.407
3,ACATTTTA,0.24
4,AATTAAGT,0.273
5,AGTCTCTA,0.0503
6,GTCGCGGA,-0.0939
7,ATGGTAAA,0.296
8,AGTTGCCC,-0.0525
9,CCAATGGA,-0.0187
10,GCATTCGA,0.114
11,CCTAGAGG,-0.202
12,AACATCAC,-0.0378
13,GAAATATC,0.223
14,GAGAATTA,0.198
15,CAAGCATA,0.0305
16,CAGCCGGA,-0.183
17,CCATCCAG,-0.0984
18,TATGAAAA,-0.0441
19,ACACCTGG,-0.181
20,AATTATTC,0.232
21,TAGACCGA,0.0209
22,CAAAGGCC,-0.379
23,AGGCGCCC,-0.334
24,AACAGCGC,-0.139
25,CACCATAG,-0.0481

row,Sequence,binding signal [E-score]
1,GAAACACA,0.0318
2,GATACAGA,-0.0115
3,ACATCGCC,-0.166
4,CATTAATG,0.281
5,CGCACCCC,-0.41
6,GTGCCTCA,-0.181
7,GTAAGACA,0.088
8,ATCTTCTA,0.268
9,ACCGGCGA,-0.0876
10,CTGAGTAA,0.0839
11,GTGGGATA,0.0946
12,CCATTGGG,-0.0934
13,ATTCACCC,0.0731
14,ATGATTGC,0.0392
15,CGTCGACA,-0.189
16,TCGTACCA,0.0368
17,AGACCGTA,-0.0652
18,AACACTCT,0.0485
19,CCTCTTCC,-0.275
